Assay results: the RNAGym collection of RNA variant scans (doi:10.1093/nar/gkz1192)
The source gives no read counts; variants with many changes may rest on few reads.

B1: CPEB3 Ribozyme (parent)
chain: UAACAGGGGGCCACAGCAGAAGCGUUCACGUCGCAGCCCCUGUCAGAUUCUGGUGAAUCUGCGAAUUCUGCUGUAUAUCUC

Variants of: B1
Test: self-cleavage, relative activity (ratio to wild type); higher = more cleavage; in vitro, sequencing
Procedure, shortened: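 Barcoded CPEB3 ribozyme mutants, produced by rounds of error-prone PCR, self-cleaved while being transcribed with T7 RNA polymerase for 5 hours at 37°C and during a subsequent 15 min DNase I step before EDTA was added. Sequencing of template-switched cDNA on Illumina gave cleaved and total reads, and DNA sequencing assigned barcodes to variants. Each variant's relative activity is its cleaved/total read fraction divided by the unmutated ribozyme's fraction, averaged across three batches. A variant needed a minimum of 5 reads.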

| Variant | self-cleavage |
| --- | --- |
| UAGCAGGGGGCCACAGCAGAAGCGUUCACGUCGCAGCCCUUGUCAGAUCCUGGUGAAUCUGCGAAUUCUGCUGUAUAUCUC | 0.71 |
| UAGCAGGGGGCCACAGCAGAAGCGUUCACGUCGCAGCCCUUGUCAGAUUCAGGUGAAUCUGCGAAUUCUGCUGUACAUCUC | 0.81 |
| UAGCAGGGGGCCACAGCAGAAGCGUUCACGUCGCAGCCCUUGUCAGAUUCUGGUGAAUCUGCGAAUUCUGCAGUAUAUCUC | 0.57 |
| UAGCAGGGGGCCACAGCAGAAGCGUUCACGUCGCAGCCCCUGUCAGAUUCUGGUGAAUCUGACAAUUCUGCAGUAUAUCUC | 0 |
| UAGCAAGGGGCCCCAGCAGAAGGGUUCACGUCGCAGCCCCUGUCAGAUUCUGGUGAAUCUGCGAAUUCCGCUGUAUAACUC | 0.11 |
| UAGCAAGGGGCCACUGCAGAAGCGUUCACGUCGCAGCACCUGUCAGGUUCUGGUGAAUCUGCGAAUUCUGCUGUAUAUCUC | 0.12 |
| UAGCAAGGGGCCACAGCAGGAGCGUUCACGUCGCAGCCCCUGUCUGAUUCUGGUGAAUCUGCGAAUUCUACUGUAUAUCCC | 0.07 |
| UAGCAAGGGGCCACAGCAGACGCGUUCACGUCGCGGCCCCUGUCAGAUUCUGGUGAAUCUGCGAAUUCUGCUGAAUAUCUC | 0.05 |
| UAGCAAGGGGCUACAGCAGAAGCGUUCACGUCGCAGCCCCUGUCAGAUUCUGGUGAAUCAGCGAAUUCUGCUGUACAUCUC | 0.04 |
| UAGCAAGGGGCCACAGCAGAAGCGUUCACGUUGCAGCCCCUGUCAGAUUCUGGUGAAUCUGCGAAUUCUGCAGUAUAUCAC | 0.1 |
| UAGCAAGGGGCCACAGCAGAACCGUUCACGUCGCAGCCCCUGUCAGAUUCUGGUCAAUCUGCGAAUUCUGCUGUAUACCCC | 0.05 |
| UAGCAAGGGGCCACAGCAGAAGCGUUCACGUCACAGACCCUGUCAGAUUCUGGUGAAUCUGCGAAUUCUGCCGUAUAUCUC | 0.04 |
| UAGCAAGGGGCCACAGCAGAAGCGUCCACGUCGCGGCCCCUGUCGGAUUCUGGUGAAUCUGCGGAUUCUGCUGUAUAUCUC | 0.06 |
| UAGCAAGGGGCCACAGCAGAAGCGUUCACGUCGCAGCCCCAGUCAGAUUCUGGUGAAUCCGCGAAUUCUGCUGUAUAUCUC | 0.06 |
| UAGCACGGGGCCACGGCAGAAGCGUUCACGUCGCAGCCCCAGUCAGAUUCUGGUGAAUCUGCGAAUUCUGCUGUUUAUCCC | 0.06 |
| UAGCAUGGGGCCUCAGCAGAGGCGUUCACGUCGCAGCCCCUGCCAGAUUCUGGUGAAUCCGCGAAUUCUGCUGUAUAUCUC | 0.35 |
| UAGCAUGGGGCCUCAGCAGAAGCGUUCACGUCGCAGCCCCUGUCAGAUUCUGGUGAAUCCGCGAAUUCUGCUGUAUAUCUC | 0.26 |

| Variant | self-cleavage |
| --- | --- |
| UAGCAUGGGGCCACUGCAGAAGCGUUCACGUCGCAGCCCCUGUCAGAUUCUGUUGAACCUGCGAAUUCCGCUGUAUAUCUC | 0.11 |
| UAGCAUGGGGCCACAGCUGAGGCGUUCACGUCGCAGCCCCUGCCAGAUUCUGGUGAAUCUGCGAAUUCUGCUGUAUAUCUC | 0.11 |
| UAGCAUGGGGCCACAGCAGAAGCGUUCACGUCGCAGCCCCUGUCAGAUUCUGGUGAAUCUGCGAAUUCUGCUGUAUGUCUC | 0.51 |
| UAGCAUGGGGCCACAGCAGAAGCGUUCACGUCGCAGCCCCUGUCAGAUUAUGGUGAAUCUGCGAAUUCUGCUGUAUAUCUC | 0.34 |
| UAGCAUGGGGCCACAGCAGAAGCGUUCACGUCGCAGCCCCUGUCAGAUUCUGGUGAAUCUGCGAAUUCUGCUGUAAAUCCC | 0.19 |
| UAGCAGAGGGCCUCAGCAGGAGCGUUCACGUCGCAGCCCCUGUCUGAUUCUGGUGAAUCUGCGAAUUCAGCUGUAUAUCUC | 0.08 |
| UAGCAGAGGGCCACGGCAGAAGUGCUCGCGUCGCAGCCCCUGUCAGAUUCUGGUGAAUCCGCGAAUUCUGCUGUAUAUCUC | 0.27 |
| UAGCAGAGGGCCACUGCAGAAGCGUCCACGUCGCAGCCCCUGUCAGAUUCAGGUGGAUCUGCGAAUACUGCUGUAUAUCUC | 0.06 |
| UAGCAGAGGGCCACAGCAGAGGCGUUCACGCCGCAGCCCCUGACAGAUUCUGGUGAAUCUGCGGAUUCUGCUGAAUAUCUC | 0.02 |
| UAGCAGAGGGCCACAGCAGAAGCGUUCGCGUCGCAGCCCCUGUCUGAUUCUGGUGAAUCAGCAAAUUCUGCUGUACAUCUC | 0.07 |
| UAGCAGAGGGCCACAGCAGAAGCGCUCACGUCGCAGCCCCUGUCGGAUUCUGGUGAAUCUGCGAAUUCUGCUGUAUAUCUC | 0.07 |
| UAGCAGAGGGCCACAGCAGAAGCGCUCACGUCGCAGCCCCUGUCAGAUUCUGGUGAAUCUACGAAUUCUGCUGUAUAUCUC | 0.05 |
| UAGCAGAGGGCCACAGCAGAAGCGUCCACGUCGCAGCCCCAGUCAGAUUCUGGUGAAUCUGCGAAUUCUGCAGUAUAUCUC | 0.41 |
| UAGCAGAGGGCCACAGCAGAAGCGUUCACGUCGCAGCCCCUGACGGAUUCUGGUGAAUCUGCGAAUCCUGCUGUAUAUCCC | 0.12 |
| UAGCAGAGGGCCACAGCAGAAGCGUUCACGUCGCAGCCCCUGUCAGACUCUGGUGAAUCUGCGGAUUCUGCUGUAUAUCUC | 0.07 |
| UAGCAGAGGGCCACAGCAGAAGCGUUCACGUCGCAGCCCCUGUCAGAUUCUGGAGAAUCUGCGAAUUCUGCUGUAUAUCUC | 0.6 |
| UAGCAGAGGGCCACAGCAGAAGCGUUCACGUCGCAGCCCCUGUCAGAUUCUGGUGAAUCUGCGAAUUCUGCUGUAUACCUC | 0.31 |
